Out of some 360,000 compounds screened, about 7,500 (2.1%) were called active. Inconclusive results, whose numbers are uncertain, are shown with a selection of clear calls. The call rests on the fitted dose curve; in most records, active means well fitted cell-killing curve with a large enough effect; inconclusive means small, poorly fitted or top-dose-only effect, or effect the other way, or another doubt; inactive means no such curve, though single readings can be large or run the other way. No potency is given beside an inconclusive call; the fits are too rough. Some structures have more than one record in an assay (separate samples or runs), and their calls can disagree.
test: qHTS for induction of synthetic lethality in tumor cells producing 2HG: qHTS for the HT-1080-IDH1KD cell line; details: HT-1080 IDH1 knockdown viability, ATP luminescence, 48 h; activity, negative = toxicity: at 46.1 µM (top of the series) unless noted;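 on activity, negative = toxicity: 0% = DMSO wells and -100% = cell-free medium wells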
In short: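 Luminescent ATP read-out (CellTiter-Glo, 10 min at room temperature) after 48 h compound exposure at 37 °C gave viability of IDH1-knockdown HT-1080 cells. Activity was normalised to DMSO and cell-free wells, then fitted as concentration-response curves.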
Potency means the concentration at half of the fitted maximal effect; tags describe the fitted curve by direction and shape.

**Q.** For CCCSc1nc2cc(OC)c(OC)cc2c(=N)n1CCCN1CCOCC1, which Potency is on record?
**A.** The Potency was inconclusive [cytotoxic, single point].

**Q.** For COc1ccc(OC)c(NC(=O)Nc2nc(C(N)c3ccccc3Cl)cs2)c1 (stereo not given), which Potency is on record?
**A.** Its Potency is inconclusive [cytotoxic, single point].

**Q.** With O=C(Nc1nnc(COc2ccc(F)cc2)s1)c1cccs1 as the molecule, how does the Potency read?
**A.** The Potency was inconclusive [cytotoxic, single point].

**Q.** For CC(=O)c1cc(F)c(N2CCOCC2)cc1C, which “activity, negative = toxicity” value is on record?
**A.** The value was inactive: 13.5%.

**Q.** Which Potency does the source give for CCn1c2ccccc2c2cc(NC(=O)CSc3nnc(-c4cccc(OC)c4)n3N)ccc21 here?
**A.** Its Potency is inconclusive [cytotoxic, partial curve].

**Q.** With Cc1nc(Sc2ccc(Br)cc2)c(C#N)c(C)c1[N+](=O)[O-] as the molecule, how does the Potency read?
**A.** Its Potency is inconclusive [cytotoxic, single point].

**Q.** For CCCCNC(=O)C(NC(=O)c1ccc2ccccc2c1)C(=O)c1ccccc1 (stereo not given), which Potency is on record?
**A.** Its Potency is inconclusive [cytotoxic, single point].

**Q.** For CCc1nc2ccc(C(=O)Nc3cc(-c4ccccc4)ccc3OC)cn2c1N(CC)CCN(C)C, which Potency is on record?
**A.** The Potency was active: 13 µM.

**Q.** For CSc1ccc(CN2CCC(Oc3cccc(C(=O)N4CCCC4)c3)CC2)cc1, which “activity, negative = toxicity” value is on record?
**A.** The value was inactive: 3.97%.

**Q.** With CCOC(=O)N1CCN(Cc2nc3cc(NC(=O)CC)ccc3n2CC)CC1 as the molecule, how does the Potency read?
**A.** The Potency was inconclusive [cytotoxic, single point].

**Q.** With O=C(O)C1CCN(C(=O)c2ccccc2C(=O)N2CCC(C(=O)O)CC2)CC1 as the molecule, how does the activity, negative = toxicity read?
**A.** Its activity, negative = toxicity is inconclusive: 30.8%.

**Q.** Which Potency does the source give for O=C(Nc1ccc(N2CCN(C(=O)c3ccco3)CC2)cc1)c1cc(Br)ccc1Cl here?
**A.** The Potency was inconclusive [cytotoxic, single point].

**Q.** For COc1cc(C(=O)N2CC(=O)Nc3ccccc32)cc(OC)c1OC, which Potency is on record?
**A.** Its Potency is inconclusive [cytotoxic, single point].

**Q.** Which Potency does the source give for COC(=O)C1=CN(c2cc(C)cc(C)c2)C=C(C(=O)OC)C1c1ccc(OC)c(O)c1 here?
**A.** The Potency was inconclusive [cytotoxic, single point].

**Q.** For Cc1cccc(N(CC(=O)NC(C)C)C(=O)CCC(=O)Nc2nccs2)c1, which “activity, negative = toxicity” value is on record?
**A.** The value was inactive: 12.2%.

**Q.** With ClCc1nc2ccccc2n1Cc1ccccc1 as the molecule, how does the “activity, negative = toxicity” value read?
**A.** The value was inactive: -11.9%.

**Q.** Which Potency does the source give for O=C1[C@H]2[C@@H]3CCN1CCC[C@@H]2C=C[C@@H]3c1ccc(Br)cc1 here?
**A.** Its Potency is inconclusive [cytotoxic, single point].

**Q.** Which Potency does the source give for O=C(NC1CCCCC1)c1ccc(-c2cccc([N+](=O)[O-])c2)o1 here?
**A.** Its Potency is inconclusive [cytotoxic, single point].

**Q.** For CC(C)c1cc(C(=O)NNC(=S)NCc2ccco2)c(O)c(C(C)C)c1, which Potency is on record?
**A.** Its Potency is active: 16.4 µM.

**Q.** For CCN(C(=O)COc1ccc(C)cc1OC)c1cccc2ccccc12, which Potency is on record?
**A.** Its Potency is inconclusive [cytotoxic, single point].

**Q.** For CC(NNC(=S)N1CCN(c2ccccn2)CC1)c1nccc2ccccc12 (stereo not given), which Potency is on record?
**A.** Its Potency is inconclusive [cytotoxic, partial curve, poor fit].

**Q.** Which “activity, negative = toxicity” value does the source give for CCN(CC)C(=O)C1=C(C)N(CCC2=CCCCC2)C(=O)C(CC(=O)NCc2cccs2)C1 (stereo not given) here?
**A.** Its value is inactive: -0.113%.

**Q.** With CCCNC(=O)C1(C)CCN(Cc2ccc(-c3ccccc3)o2)C1 (stereo not given) as the molecule, how does the Potency read?
**A.** Its Potency is inconclusive [cytotoxic, partial curve].

**Q.** For CCOC(=O)c1c(-c2ccccc2)oc2ccc(O)c(CN3CCCC3)c12, which Potency is on record?
**A.** Its Potency is inconclusive [cytotoxic, single point].

**Q.** For Cn1cnc([N+](=O)[O-])c1Sc1nc2ccccc2[nH]1, which Potency is on record?
**A.** Its Potency is active: 18.4 µM.

**Q.** Which Potency does the source give for O=C(O)c1ccccc1/C=N/Nc1ccc(S(=O)(=O)N2CCCC2)cc1[N+](=O)[O-] here?
**A.** Its Potency is inconclusive [cytotoxic, single point].

**Q.** With COc1ccccc1NC(=O)COc1ccc(/C=N/NC(=O)CSCc2cc(C)cc(C)c2)cc1 as the molecule, how does the Potency read?
**A.** The Potency was inconclusive [cytotoxic, single point].

**Q.** With CCCCCCCCn1c2c(c(=N)c3ccccc31)CCC2 as the molecule, how does the Potency read?
**A.** The Potency was active: 9.2 µM.

**Q.** Which “activity, negative = toxicity” value does the source give for O=C(NCCO)c1ccc(CSc2nc3ccccc3[nH]2)cc1 here?
**A.** Its value is inactive: -2.35%.

**Q.** Which “activity, negative = toxicity” value does the source give for CCOc1cccc2cc(C(=O)NCc3ccc(F)cc3)c(=N)oc12 here?
**A.** Its value is inactive: 16.6%.

**Q.** With CC1C/C(=N\Nc2ccc(S(N)(=O)=O)cc2[N+](=O)[O-])CC(C)(C)C1 (stereo not given) as the molecule, how does the Potency read?
**A.** The Potency was inconclusive [cytotoxic, single point].

**Q.** Which Potency does the source give for COc1ccc(C(O)c2ncc(-c3ccc4ccccc4c3)[nH]2)cc1 (stereo not given) here?
**A.** Its Potency is inconclusive [cytotoxic, single point].

**Q.** Which activity, negative = toxicity does the source give for Cc1c(CN(C)C(=O)c2sc3cc(Cl)ccc3c2Cl)cnn1C here?
**A.** Its activity, negative = toxicity is inconclusive: -31.1% [cytotoxic].

**Q.** With CC1=CC(C)(C)NC(=S)N1c1cccc(C)c1 as the molecule, how does the Potency read?
**A.** The Potency was active: 8.91 µM.

**Q.** For Nc1nonc1-c1nc2ccccc2n1CC(=O)Nc1ccccc1, which Potency is on record?
**A.** The Potency was inconclusive [cytotoxic, partial curve, poor fit].

**Q.** Which Potency does the source give for CCN(CC)S(=O)(=O)c1ccc(C)c(NC(=S)Nc2cccc(S(=O)(=O)N3CCCCCC3)c2)c1 here?
**A.** Its Potency is inconclusive [cytotoxic, single point].

**Q.** With O=Cc1c(Cl)nc2ccccn2c1=O as the molecule, how does the Potency read?
**A.** Its Potency is inconclusive [cytotoxic, single point].

**Q.** Which Potency does the source give for CNc1nc(Nc2ccc(C)cc2C)c2sccc2n1 here?
**A.** Its Potency is inconclusive [cytotoxic, partial curve, poor fit].

**Q.** For Cc1ccc(C(=O)/C=C/Nc2ccccc2C(N)=O)o1, which Potency is on record?
**A.** Its Potency is inconclusive [cytotoxic, single point].

**Q.** Which Potency does the source give for COc1cc(C2NC(=O)NC(C)=C2C(=O)OCC2CCCCC2)cc(Cl)c1O (stereo not given) here?
**A.** Its Potency is inconclusive [cytotoxic, single point].

**Q.** Which activity, negative = toxicity does the source give for CC1(c2ccccc2)NC(=O)N(N)C1=O (stereo not given) here?
**A.** The activity, negative = toxicity was inconclusive: 1.97% [cytotoxic].

**Q.** Which Potency does the source give for O=C(COc1ccc2ccccc2c1)NNC(=O)Cc1cccc2ccccc12 here?
**A.** Its Potency is inconclusive [cytotoxic, single point].

**Q.** Which Potency does the source give for O=C(Cc1ccccc1Cl)Nc1nc2ccccc2[nH]1 here?
**A.** Its Potency is inconclusive [cytotoxic, partial curve].

**Q.** For CCCCNc1cc(=O)n(C)c(=O)n1C, which “activity, negative = toxicity” value is on record?
**A.** Its value is inactive: 13.3%.

**Q.** With O=C(CN1CCN(S(=O)(=O)c2ccc(F)cc2)CC1)Nc1ccc2c(c1)OCCO2 as the molecule, how does the “activity, negative = toxicity” value read?
**A.** The value was inactive: -0.788%.

Source: PubChem BioAssay AID686971 (National Center for Advancing Translational Sciences (NCATS), 2013)
